Experimental data reported in PMC12136788.
The other results are listed elsewhere or left out.

T1: UNK ZnF1-3 (human, UniProt Q9C0B0 31-174)
T1 sequence: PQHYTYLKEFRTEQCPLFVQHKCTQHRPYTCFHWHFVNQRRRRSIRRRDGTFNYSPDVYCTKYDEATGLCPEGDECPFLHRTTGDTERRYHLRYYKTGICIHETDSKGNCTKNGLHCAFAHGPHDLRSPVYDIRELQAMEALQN

B1: chr18:52937122:52937123:-_ENSG00000196628_ENST00000354452|hu_mus|motif|central (ssRNA)
RNA: GGGAGUUCUACAGUCCGACGAUCUAUACUGUCUGUUCCGUUGGCAGGGGGUGUGCAGGAAGAGGUGCUGUAAUGGUUUGUGCCACGGCGAUGGAACGUGGACAUCGGAGGAAGACUGGAGUUGAUGUCUGCCGAGGAGUGGGACAACAGAGGAUUGAGCAUCA
B2: chr11:102700179:102700180:-_ENSMUSG00000020929_ENSMUST00000107060|mus_mus|FALSE|FALSE (ssRNA)
RNA: GGGAGUUCUACAGUCCGACGAUCAUAAUUGAGCACAACAUCCUGUUUGGCGAGCUCCAGCAACAUAGGAUCGUCGAAGAACUUGCUGAUGCUCACAUCUUCACUCAGGCCCUUCCUACGACGGGUUUUGAUCAUGAACUCCCGCAACAGAGGAUUGAGCAUCA
B3: 68238525_68238645_86_5pUTR_ENSMUSG00000037685_ENSMUST00000037380|mouse|control|control (ssRNA)
RNA: GGGAGUUCUACAGUCCGACGAUCUGCGCCGCGCAGAGGGCUCAGCUGCCGCGGGGCCGCGCCUCCCACCCAGGGCAGCGUCGCCGCCAGGAGCCGCCUGGGCACUGGACGGGAGGGGGAAGGCGGCGAAGGAGCUGCGUCCGCCAACAGAGGAUUGAGCAUCA
B4: chr18:77180173:77180174:+_ENSMUSG00000090000_ENSMUST00000026487|mus_mus|FALSE|FALSE (ssRNA)
RNA: GGGAGUUCUACAGUCCGACGAUCGAUAUAAACUGAACAACAGUAUUAUGAGAUGAGCCAAGAACACCACAAAGCUGGUCUAAGACAUAAGACAGACGAACAAACGAAAGCUACUUAGAAUCAACAACCUACCUACAGACAGAACAACAGAGGAUUGAGCAUCA
B5: 25843335_25843557_1556_CDS_ENSMUSG00000003378_ENSMUST00000003468|mouse|control|control (ssRNA)
RNA: GGGAGUUCUACAGUCCGACGAUCUAGAGUCUGUGACAGGUUGAUGUCCAGGGUGGUGGCAUUCAUGGCCAGGGUCCGGUUAGAGUACCACACCCCUAUCUCACGGUGGCCCUGGCGGGACUUCUCCAGGAUGCGUAGUGUGUACAACAGAGGAUUGAGCAUCA
B6: chr3:132390928:132390929:+_ENSG00000081307_ENST00000264991|hu_mus|FALSE|FALSE (ssRNA)
RNA: GGGAGUUCUACAGUCCGACGAUCACUGGCUGCGCAGACGCCUUCUCGUUUCAGGGUUUUUUCAUCAAUAUUUGAAGCAACUACAAGUGGUGGCGCACACGCGAAGCAAGCCGACUCUCCAGGGAUCAUCAGCUGGAUGUGCCCCAACAGAGGAUUGAGCAUCA
B7: chr12:48362563:48362564:+_ENSG00000134291_ENST00000256686|hu_hu|hu_hu_hu_mus_False|1_28 (ssRNA)
RNA: GGGAGUUCUACAGUCCGACGAUCUCCGUCAAGCCCUUCGAUAGACCCUUGCGGGGGAAACUGUAAUCACUUUGUAUGGGGAAGGAAAAGAAACGCCAAAAACUUUCUUUCUUUCUUGGGUGGGGUGAGGCGGGAGGUUGGGAACAACAGAGGAUUGAGCAUCA
B8: 40030617_40030737_193_3pUTR_ENSG00000176396_ENST00000390658|human|control|control (ssRNA)
RNA: GGGAGUUCUACAGUCCGACGAUCCGGCUCCCGCCUCCCGCGGCCUACCUCCGCCUGCGGGACGUCUCUGUCACCAUUCGCCGCGCCUGUCUGCGGGACACUGCUGUCUGCGGGCAGCUUGGACAUCUCAGACCGUGGGGUCAACAACAGAGGAUUGAGCAUCA
B9: chr2:38870762:38870763:+_ENSMUSG00000026755_ENSMUST00000090993|mus_hu|FALSE|FALSE (ssRNA)
RNA: GGGAGUUCUACAGUCCGACGAUCAGAUCCUAAACAGGAUUUAGGAAACAGACGAUUUUCCCCUCCACCUUGAAAAUAAAAUACAUUUCAGCAGAUACAUGUCCUGAAAUAGUUUACUUGGGAGUUCCUAGGAAGAUGGUCCAUCAACAGAGGAUUGAGCAUCA
B10: chr7:107790313:107790314:-_ENSG00000091129_ENST00000351718|hu_hu|FALSE|FALSE (ssRNA)
RNA: GGGAGUUCUACAGUCCGACGAUCCUCUCUACCCAUAUGUUCAUAGUAUGAGAGGGCUGACAAACAAGUGCUUAGGAUAAACAUUCUAGAGAAAUGGAAUAUUGGCAAAGAGCUUAAAAAUUAAACAAAGGAAUUCAUGGCGUUCAACAGAGGAUUGAGCAUCA
B11: chr8:104447970:104447971:+_ENSG00000164934_ENST00000297579|hu_hu|hu_hu_hu_mus_False|1_98 (ssRNA)
RNA: GGGAGUUCUACAGUCCGACGAUCAUACACUUCCCUGCUUCGACUUUUGUCCACAGGAAAGAUUCUAAUAGACUUAUCAAAGCUGGCAGACACAAAUUCCUUCCCAGUGGGAGAGUAGUCCACAUCAAGUACUGCAGAUACAUGCAACAGAGGAUUGAGCAUCA
B12: chr5:145543945:145543946:-_ENSG00000133706_ENST00000545646|hu_hu|hu_hu_hu_mus_True|1_58 (ssRNA)
RNA: GGGAGUUCUACAGUCCGACGAUCCUGAACGGCCAGUGGUGGGAAAUAAUCAAGCCAGUGCUCUGCUUCAGAAAACUUUACUAUCUCGUCAUCAGAGAGCCCAAGGGAUUUCAUAAUGUCCCACUGGUACUUAGAAGAUCCAGCCAACAGAGGAUUGAGCAUCA
B13: 179970342_179970462_6631_3pUTR_ENSG00000187231_ENST00000428443|human|control|control (ssRNA)
RNA: GGGAGUUCUACAGUCCGACGAUCAGGAUAAAGAAUACUCUAUUUUUUAUUCUGAAAAGAUAAUUAUAGCAAUGAUACCUUCCAUUCUGUUUAUUUCUGGAUAUUUUGGCUUCAACAAUUCUUUAUAUCAUAUUUUAUUCUUGACAACAGAGGAUUGAGCAUCA
B14: 115252300_115256491_533_CDS_ENSG00000213281_ENST00000369535|human|control|control (ssRNA)
RNA: GGGAGUUCUACAGUCCGACGAUCUAGCACCAUAGGUACAUCAUCCGAGUCUUUUACUCGCUUAAUCUGCUCCCUGUAGAGGUUAAUAUCCGCAAAUGACUUGCUAUUAUUGAUGGCAAAUACACAGAGGAAGCCUUCGCCUGUCAACAGAGGAUUGAGCAUCA

Target: T1, UNK ZnF1-3
Assay: nsRBNS (natural sequence RNA bind-n-seq); RBNS binding buffer (assumed for nsRBNS): 25 mM Tris pH 7.5, 150 mM KCl, 3 mM MgCl2, 0.01% Triton X-100, 500 ug/ml BSA, 20 U/ml SUPERase-In, 4 C; UNK is unkempt and MSI1 is Musashi-1; names of the RNAs are library labels; protein concentration not given here; high values mean tight binding

Binder	binding signal [enrichment R]
B1	1.28
B2	1.35
B3	0.855
B4	1.56
B5	0.845
B6	1.12
B7	1.72
B8	0.63
B9	1.05
B10	1.95
B11	0.883
B12	1.44
B13	0.743
B14	0.975
